# Data reported in PubChem BioAssay AID624296 (National Center for Advancing Translational Sciences (NCATS), 2012).
# In all, about 350,000 compounds went through this assay and about 9,900 (2.8%) were called active. Inconclusive results, whose numbers are uncertain, are shown with a selection of clear calls. The call rests on the fitted dose curve; in most records, active means well fitted activation curve with a large enough effect; inconclusive means small, poorly fitted or top-dose-only effect; inactive means no such curve, though single readings can be large or run the other way. No potency is given beside an inconclusive call; the fits are too rough.
# Assay: A quantitative high throughput screen for small molecules that induce DNA re-replication in MCF 10a normal breast cells. Further: nearly all actives have a fitted effect of over 50% in size. On activity, positive = re-replication: % of control where 0% means no effect.
# Conditions: MCF 10A DNA re-replication, Hoechst nuclear intensity, 48 h; activity, positive = re-replication: at 46.1 µM (top of the series)
# Potency means the concentration at half of the fitted maximal effect; tags describe the fitted curve by direction and shape.
SMILES,"activity, positive = re-replication",Potency
NC(CO)(CO)COCc1ccccc1,inactive: 7.61%,
O=C(c1cnn2c1NC(c1ccc(Br)cc1)CC2C(F)(F)F)N1CCN(C23CC4CC(CC(C4)C2)C3)CC1 (stereo not drawn),,"inconclusive [activator, single point]"
CC1CCC(NC(=O)CN2C(=O)C3CC=CCC3C2=O)CC1 (stereo not drawn),,"inconclusive [activator, partial curve, poor fit]"
COc1ccc(/C=N/n2cnc3c([nH]c4ccc(Br)cc43)c2=O)cc1CN1CCOCC1,,"inconclusive [activator, single point]"
O=C(NCCc1ccc(Cl)cc1)C1CCCO1 (stereo not drawn),inactive: -11.5%,
CCOC(=O)C1=C(C)NC(SCC(=O)Nc2cc(C)on2)=C(C#N)C1c1cccs1 (stereo not drawn),,"inconclusive [activator, single point]"
O=C(CSc1nc(-c2ccccc2)c(-c2ccccc2)[nH]1)N1CCN(S(=O)(=O)c2ccccc2)CC1,inactive: 4.52%,
Cc1cc(=O)n2nc(N3CCCC3C(=O)Nc3cccc(Cl)c3C)sc2n1 (stereo not drawn),inactive: -2.02%,
COc1ccc(NC(=S)N2CCC(NC(=O)c3ccc(F)cc3)CC2)cc1,,"inconclusive [activator, single point]"
O=C(NCCOc1ccccc1)c1cccc(S(=O)(=O)NCc2ccccc2)c1,,"inconclusive [activator, single point]"
Cc1nc2ccccn2c1-c1csc(Nc2cccc(O)c2)n1,,"inconclusive [activator, full curve]"
CCOC(=O)CSc1nc2ccsc2c(=O)n1C1CCN(C(=O)OCC)CC1,inactive: -4.55%,
COc1cc(C2CC(=O)Oc3cc4c(cc32)OCO4)cc(OC)c1OC (stereo not drawn),inactive: -26.7%,
Cc1ccc(S(=O)(=O)n2cccc2CO)cc1,,"inconclusive [activator, single point]"
CC(C)C(=O)Nc1cccc(COc2cccc(CN(Cc3ccccc3)C(=O)OC(C)(C)C)c2)c1,,active: 1.84 µM
CCOC(=O)C1(Cc2cccc(OC)c2)CCN(Cc2ccc(C)s2)CC1,,"inconclusive [activator, partial curve, poor fit]"
COc1ccc(C(CNC(=O)c2c(C)nn(Cc3ccc(C)cc3)c2Cl)N2CCOCC2)cc1 (stereo not drawn),inactive: -2.71%,
Nc1nc(NC2CC2)c2ncn([C@H]3C=C[C@@H](CO)C3)c2n1,inactive: 2.01%,
Cc1nc(Nc2ccncc2)c2oc3ccccc3c2n1,,"inconclusive [activator, single point]"
COCCN(C(=S)Nc1c(C)cccc1C)C(C)c1cccs1 (stereo not drawn),inactive: 8.57%,
CC(/C=C/c1ccco1)=N\NC(=O)CNc1ccc2ccccc2c1,inactive: 7.22%,
CC(C)n1c(NCc2nc3ccccc3n2C)nc2ccccc21,inactive: 4.07%,
CN(C)CCNC(=O)c1ccc(Sc2ccc(Br)cc2)c([N+](=O)[O-])c1,,"inconclusive [activator, partial curve, poor fit]"
CC(=O)N1CCc2cc(S(=O)(=O)Nc3cccc(C(F)(F)F)c3)ccc21,,"inconclusive [activator, single point]"
COCc1ccc(-c2c(-c3ccsc3)oc(=O)c3cc(OC)c(OC)cc23)cc1,,active: 3.66 µM

SMILES,"activity, positive = re-replication",Potency
COc1ccc(N=Cc2sc3ccccc3c2Cl)cc1,inactive: -12.6%,
O=[N+]([O-])c1ccc(O)c(C=Nc2ccc3nc(-c4ccccc4)[nH]c3c2)c1,,"inconclusive [activator, single point]"
COc1ccccc1OCCCOc1ccc(/C=C2\SC(=O)NC2=O)cc1OC,,"inconclusive [activator, single point]"
CC(C)(C)c1cc(C2COC(=O)COCCOCC(=O)OCCOCCO2)cc(C(C)(C)C)c1O (stereo not drawn),inactive: -7.68%,
Cc1ccc(S(=O)(=O)N2CCCCC2)cc1NC(=O)Cn1ccsc1=N,inactive: 1.35%,
Cc1ccc(C(=O)NCC(=O)Nc2ccc3c(c2)CCC3)cc1C,,"inconclusive [activator, partial curve, poor fit]"
Cc1ccc(NC(=O)C2CCC(C(C)(C)C)CC2)cc1S(=O)(=O)N1CCOCC1 (stereo not drawn),,active: 18.4 µM
O=C(Nc1ccccc1-c1nnc(SCc2ccccc2)o1)c1ccccc1,,"inconclusive [activator, full curve]"
O=[N+]([O-])c1ccc(N2CCN(CCO)CC2)cc1NCc1ccco1,,"inconclusive [activator, single point]"
O=C(COC(=O)CCSc1ccc(Cl)cc1)NCc1ccc(Cl)cc1,,"inconclusive [activator, single point]"
CC(C)CC1(C(=O)NCc2cc(F)cc(C(F)(F)F)c2)C=CCN1C(=O)c1ccccc1 (stereo not drawn),,active: 1.46 µM
Cc1ccc(-c2cc(C(=O)N3CCCc4ccccc43)c3ccccc3n2)cc1,,active: 20.6 µM
Cc1ccsc1C(=O)N1CCN(c2ccccn2)CC1,inactive: -0.568%,
Cc1cccn2c(=O)c3cc(C(=O)NCCN4CCOCC4)c(=N)n(CCN4CCOCC4)c3nc12,,active: 11.6 µM
CS(=O)(=O)c1ccc([C@H](O)[C@H](CO)NC(=O)C(Cl)Cl)cc1,inactive: 2.47% [at 20.6 µM],
Cc1occc1C(=O)N=Nc1c(O)n(C)c2ccccc12,inactive: -2.58%,
O=C(O)c1ccccc1C(=O)N1CCN(c2cccc(Cl)c2)CC1,inactive: -0.554%,
COc1ccc(/C=N/NC(=O)c2ccc3nc[nH]c3c2)c(OC)c1OC,,"inconclusive [activator, partial curve, poor fit]"
CC(C)(C)C(=O)Nc1c2c(nn1-c1ccccc1)CSC2,inactive: -0.75%,
Cc1cccn2c(=O)c3cc(C(=O)NCc4cccnc4)c(=N)n(C(C)C)c3nc12,,"inconclusive [activator, full curve, poor fit]"
CC(C)Oc1ccc(CNC(=O)CCC(=O)N2CC(C)Sc3ccccc32)cc1 (stereo not drawn),inactive: 12.1%,
COc1cccc(-c2nc(NCc3cccnc3)c3ccccc3n2)c1O,,"inconclusive [activator, single point]"
COC(=O)c1sccc1-c1ccc(C(=O)Nc2cccc(Cl)c2)o1,,"inconclusive [activator, partial curve]"
COc1ccc(-c2nc(Cn3c(SCc4cccc(F)c4)nc4ccncc43)c(C)o2)cc1OC,,"inconclusive [activator, single point]"
C/C(=N/Nc1ccc(F)cc1)c1ccc(Cl)s1,inactive: -0.917%,

SMILES,"activity, positive = re-replication",Potency
FC(F)(F)c1nnc(-c2ccccc2)nc1Sc1ccccc1,,active: 5.17 µM
COc1cccc(Nc2ccc(Nc3cccc(OC)c3)nn2)c1,inactive: 7.85%,
CCCCOc1ccc(C(=O)NNC(=S)NC(=O)CC)cc1,,"inconclusive [activator, partial curve, poor fit]"
O=C(NNC(=O)c1cc(S(=O)(=O)N2CCOCC2)c(Cl)cc1Cl)c1ccccc1F,,"inconclusive [activator, single point]"
COc1ccc(C(CCN(Cc2ccc(OC)c(OC)c2)C(=O)CCl)c2ccccc2)cc1 (stereo not drawn),,"inconclusive [activator, single point]"
O=S(=O)(Nc1ccc(S(=O)(=O)N2CCCCC2)cc1)c1cccs1,,"inconclusive [activator, partial curve]"
CCOc1ccccc1N1CCN(C(=O)c2ccc3nc(N)sc3c2)CC1,,"inconclusive [activator, single point]"
COC(=O)c1c(NC(=O)c2ccco2)sc2c1CC(C)(C)NC2(C)C,inactive: 11.5%,
O=C1OC(CC(=O)N(Cc2nnc(-c3ccc(Cl)cc3)o2)C2CC2)c2ccccc21 (stereo not drawn),inactive: 8.01%,
Cc1cn(CC(=O)NCCCn2ccnc2)c(=O)[nH]c1=O,inactive: 9.17%,
O=C(c1cccs1)N(c1ccc(Br)cc1)C1C=CS(=O)(=O)C1 (stereo not drawn),inactive: -8.85%,
COc1ccc(C(=O)NC2CCCN(Cc3ccccc3F)C2)c(OC)c1OC (stereo not drawn),,"inconclusive [activator, partial curve]"
CCCC(=O)Nc1ccc(-c2csc(N/N=C\c3ccncc3)n2)cc1,,"inconclusive [activator, single point]"
CC/C(=N\Nc1ccc([N+](=O)[O-])cc1)c1ccccc1,,active: 16.4 µM
Cc1ccc(N/C(=N/S(=O)(=O)c2cccs2)c2ccccc2)c(C)c1,,"inconclusive [activator, single point]"
O=c1cc2c(nn1Cc1ccc(Cl)cc1Cl)-c1ccccc1CC2,,"inconclusive [activator, single point]"
C#CCNC(=O)C1=C[C@@H](c2csc3ccccc23)[C@H](CCCO)[C@@H](OCC)O1,,"inconclusive [activator, partial curve, poor fit]"
Cc1cccc(OCC(=O)Nc2cc(NC(=O)COc3cccc(C)c3C)cc(C(=O)O)c2)c1C,inactive: -6.05%,
COc1ccc(NC(=S)NNC(=O)OC(C)(C)C)cc1OC,,"inconclusive [activator, single point]"
O=C(Nc1cccc(NC(=O)c2ccc([N+](=O)[O-])o2)c1)c1ccco1,,active: 2.31 µM
O=C(O)c1ccccc1C(=O)c1ccc2c(c1)N(Cc1ccc(Cl)c(Cl)c1)C(=O)CO2,,"inconclusive [activator, single point]"
COCCCNC(=O)C[C@H]1C[C@H](C(=O)N(C(C)C)C(C)C)[C@@]2(C)c3[nH]c4ccc(Cl)cc4c3CCN2C1=O,inactive: -0.684%,
CCOC(=O)N1CCN(S(=O)(=O)c2ccc(C(=O)NNc3nc4cc(C)cc(C)c4s3)cc2)CC1,,"inconclusive [activator, single point]"
